The results in this text go back to the antibiotic and cytotoxicity screens of Wong et al. (2023).

Some of the results follow.

One test has as its system HSkMC. Kind of test: cytotoxicity call (relative viability < 0.9). To be noted: 10 µM.
The subject of a further test is HepG2. Kind of test: cytotoxicity call (relative viability < 0.9). As to conditions: 10 µM.
Another test relates to S. aureus RN4220. Kind of test: growth inhibition call (relative growth <= 0.2). As to conditions: 50 µM.

Regarding `C[C@H]1CN([C@@H](C)CO)C(=O)c2cc(NS(=O)(=O)c3cn(C)cn3)ccc2O[C@@H]1CN(C)S(=O)(=O)c1cccs1`, the cytotoxicity call in the test with HSkMC and in the test with HepG2 was “inactive” in each case. The growth inhibition call in the test on S. aureus RN4220 is “inactive”.

Turning to `C[C@H]1CN([C@@H](C)CO)C(=O)c2cccc(NC(=O)Nc3ccc(C(F)(F)F)cc3)c2O[C@@H]1CN(C)S(=O)(=O)c1ccc(F)cc1`, the cytotoxicity call in the test with HSkMC and with HepG2 was “inactive” each time. The growth inhibition call in the test with S. aureus RN4220 was “inactive”.

For `C[C@@H]1CN([C@H](C)CO)S(=O)(=O)c2ccc(C#CCN(C)C)cc2O[C@@H]1CN(C)S(=O)(=O)c1cccc(F)c1`, the cytotoxicity call in the test on HSkMC and with HepG2 was “inactive” each time. In addition, the growth inhibition call with S. aureus RN4220 was “inactive”.

In the case of `Cc1noc(C)c1NC(=O)Nc1cccc2c1O[C@@H](CN(C)C(=O)Nc1ccc(C(F)(F)F)cc1)[C@H](C)CN([C@@H](C)CO)C2=O`, the cytotoxicity call in the test with HSkMC and in the test with HepG2 was “inactive” each time. Further, in the test with S. aureus RN4220, the growth inhibition call was “active”.

Turning to `C[C@@H]1CN([C@H](C)CO)C(=O)c2cccc(NC(=O)Nc3ccccc3)c2O[C@@H]1CN(C)C(=O)Nc1ccc(C(F)(F)F)cc1`, the cytotoxicity call in the test on HSkMC and with HepG2 was “inactive” each time. Further, in the test with S. aureus RN4220, the growth inhibition call was “inactive”.

Consider `COc1ccc(S(=O)(=O)Nc2ccc3c(c2)C(=O)N([C@H](C)CO)C[C@@H](C)[C@H](CN(C)C(=O)NC2CCCCC2)OCCCC[C@@H](C)O3)cc1`, for which the cytotoxicity call in the test with HSkMC and with HepG2 was “inactive” each time. For the same molecule, the growth inhibition call in the test with S. aureus RN4220 was “inactive”.

Consider `C[C@H]1CN([C@@H](C)CO)C(=O)CCCn2cc(nn2)CO[C@H]1CN(C)C(=O)Nc1cccc(Oc2ccccn2)c1`, for which the cytotoxicity call in the test on HSkMC and with HepG2 was “inactive” in each case. For the same molecule, in the test with S. aureus RN4220, the growth inhibition call is “inactive”.

Consider `C[C@H]1CN([C@@H](C)CO)C(=O)Cc2cc(NC(=O)NC3CCCCC3)ccc2O[C@H]1CN(C)C(=O)Nc1cccc2ccccc12`, for which, in the test with HSkMC, the cytotoxicity call is “inactive”. Moreover, in the test with HepG2, the cytotoxicity call is “active”. The growth inhibition call in the test with S. aureus RN4220 was “inactive”.

For the molecule `N#C[C@H]1N[C@@H](CO)[C@@H]1c1ccccc1`, the cytotoxicity call in the test with HSkMC and in the test with HepG2 was “inactive” throughout. Further, the growth inhibition call in the test on S. aureus RN4220 is “inactive”.

For the molecule `C[C@H]1CN([C@@H](C)CO)C(=O)c2cc(N(C)C)ccc2O[C@H]1CN(C)S(C)(=O)=O`, the cytotoxicity call with HSkMC and with HepG2 was “inactive” throughout. Moreover, the growth inhibition call in the test with S. aureus RN4220 was “inactive”.

As for `C[C@@H]1CN([C@H](C)CO)C(=O)c2cc(NC(=O)NC3CCCCC3)ccc2O[C@@H](C)CCCCO[C@@H]1CN(C)CC1CCCCC1`, the cytotoxicity call in the test on HSkMC and with HepG2 was “inactive” in each case. The growth inhibition call in the test on S. aureus RN4220 was “inactive”.

With `C[C@@H]1CN([C@H](C)CO)C(=O)c2cccc(NC(=O)C3CC3)c2O[C@@H]1CN(C)Cc1ccc(Oc2ccccc2)cc1`, the cytotoxicity call with HSkMC and with HepG2 was “inactive” in each case. Also, the growth inhibition call with S. aureus RN4220 was “inactive”.

On to `C[C@@H]1CCCCO[C@H](CN(C)C(=O)Nc2ccc(F)cc2)[C@H](C)CN([C@@H](C)CO)C(=O)c2cc(NS(=O)(=O)c3ccccc3)ccc2O1`, for which the cytotoxicity call in the test on HSkMC and with HepG2 was “inactive” each time. Further, the growth inhibition call in the test on S. aureus RN4220 is “inactive”.

Regarding `CC(C)C#Cc1ccc2c(c1)O[C@@H](CN(C)C(=O)c1cnccn1)[C@H](C)CN([C@@H](C)CO)S2(=O)=O`, the cytotoxicity call in the test on HSkMC and with HepG2 was “inactive” each time. Also, the growth inhibition call in the test with S. aureus RN4220 was “inactive”.

`COc1ccc(S(=O)(=O)Nc2ccc3c(c2)C(=O)N([C@H](C)CO)C[C@H](C)[C@H](CN(C)C(=O)Nc2c(C)noc2C)OCCCC[C@H](C)O3)cc1`: the cytotoxicity call in the test with HSkMC and in the test with HepG2 was “inactive” in each case. Moreover, in the test with S. aureus RN4220, the growth inhibition call is “inactive”.

Turning to `C[C@@H]1CN([C@H](C)CO)C(=O)c2cc(NC(=O)Cn3cnnn3)ccc2O[C@H]1CN(C)S(C)(=O)=O`, the cytotoxicity call in the test on HSkMC and in the test with HepG2 was “inactive” throughout. For the same molecule, the growth inhibition call in the test with S. aureus RN4220 was “inactive”.

On to `O=C(C[C@H]1CC[C@@H]2[C@H](COC[C@H](O)CN2S(=O)(=O)c2cccc(Cl)c2)O1)NCCCN1CCOCC1`, for which the cytotoxicity call in the test with HSkMC and with HepG2 was “inactive” in each case. Moreover, the growth inhibition call with S. aureus RN4220 was “inactive”.

With `COc1ccc(NC(=O)N(C)C[C@@H]2OCCCC[C@@H](C)Oc3ccc(NS(=O)(=O)c4ccc(F)cc4)cc3C(=O)N([C@H](C)CO)C[C@H]2C)cc1`, the cytotoxicity call in the test on HSkMC and with HepG2 was “inactive” each time. Also, the growth inhibition call in the test on S. aureus RN4220 was “inactive”.

Take `C[C@@H]1CCCCO[C@H](CN(C)C(=O)NC2CCCCC2)[C@@H](C)CN([C@H](C)CO)C(=O)c2cc(NC(=O)C3CCCCC3)ccc2O1`: the cytotoxicity call in the test with HSkMC and in the test with HepG2 was “inactive” in each case. In addition, in the test on S. aureus RN4220, the growth inhibition call was “inactive”.

For `C[C@@H]1CN([C@H](C)CO)C(=O)Cc2cc(NC(=O)C3CCCCC3)ccc2O[C@H]1CN(C)Cc1ccc(C(=O)Nc2ccccc2N)cc1`, the cytotoxicity call in the test on HSkMC and in the test with HepG2 was “inactive” throughout. For the same molecule, in the test with S. aureus RN4220, the growth inhibition call is “inactive”.

`C[C@@H]1CCCCO[C@H](CN(C)S(=O)(=O)c2ccccc2)[C@H](C)CN([C@@H](C)CO)C(=O)c2cc(NC(=O)Nc3ccc4c(c3)OCO4)ccc2O1`: the cytotoxicity call in the test on HSkMC and in the test on HepG2 was “inactive” in each case. In the test on S. aureus RN4220, the growth inhibition call was “inactive”.

In the case of `CO[C@H]1CN(C)C(=O)c2cc(NS(C)(=O)=O)ccc2OC[C@H](C)N(C(=O)CN(C)C)C[C@H]1C`, the cytotoxicity call in the test on HSkMC and with HepG2 was “inactive” throughout. The growth inhibition call with S. aureus RN4220 is “inactive”.

Turning to `CC1(C)SC2C(NC(=O)C(NC(=O)N3CCNC3=O)c3ccccc3)C(=O)N2C1C(=O)[O-].[Na+]` (stereo not drawn), the cytotoxicity call in the test on HSkMC and in the test with HepG2 was “inactive” each time. For the same molecule, the growth inhibition call with S. aureus RN4220 was “active”.

Consider `C[C@H]1CN([C@@H](C)CO)C(=O)c2cc(NC(=O)CCC(F)(F)F)ccc2O[C@@H]1CN(C)C(=O)Nc1ccc(C(F)(F)F)cc1`, for which the cytotoxicity call in the test on HSkMC (human skeletal muscle cells) and in the test with HepG2 was “inactive” in each case. In addition, the growth inhibition call with S. aureus RN4220 is “inactive”.

Regarding `C[C@H](CO)N1C[C@H](C)[C@@H](CN(C)CC2CC2)OCCCC[C@H](C)Oc2ccc(NC(=O)c3ccccc3)cc2C1=O`, the cytotoxicity call with HSkMC and with HepG2 was “inactive” in each case. Moreover, the growth inhibition call with S. aureus RN4220 was “inactive”.

Regarding `O=C(C[C@H]1CC[C@H]2[C@@H](COC[C@@H](O)CN2C(=O)Nc2cccc(Cl)c2)O1)NCc1ccccc1F`, the cytotoxicity call with HSkMC and in the test on HepG2 was “inactive” each time. Besides, in the test with S. aureus RN4220, the growth inhibition call is “inactive”.
